Each structure is given as a SMILES string. About 14,000 (4.5%) of roughly 310,000 compounds showed an effect of 50% or more. Effects have a minus sign here. This is one part of the list.
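Also: peak tail current of the secondary pulse compared with the same well before compound.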

This assay deals with human ether-à-go-go-related gene (hERG) potassium channel (human, UniProt Q12809). Put plainly: primary screen, population patch clamp on CHO cells stably expressing hERG.
human ether-à-go-go-related gene (hERG) potassium channel, sequence (Q12809 whole entry, looked up): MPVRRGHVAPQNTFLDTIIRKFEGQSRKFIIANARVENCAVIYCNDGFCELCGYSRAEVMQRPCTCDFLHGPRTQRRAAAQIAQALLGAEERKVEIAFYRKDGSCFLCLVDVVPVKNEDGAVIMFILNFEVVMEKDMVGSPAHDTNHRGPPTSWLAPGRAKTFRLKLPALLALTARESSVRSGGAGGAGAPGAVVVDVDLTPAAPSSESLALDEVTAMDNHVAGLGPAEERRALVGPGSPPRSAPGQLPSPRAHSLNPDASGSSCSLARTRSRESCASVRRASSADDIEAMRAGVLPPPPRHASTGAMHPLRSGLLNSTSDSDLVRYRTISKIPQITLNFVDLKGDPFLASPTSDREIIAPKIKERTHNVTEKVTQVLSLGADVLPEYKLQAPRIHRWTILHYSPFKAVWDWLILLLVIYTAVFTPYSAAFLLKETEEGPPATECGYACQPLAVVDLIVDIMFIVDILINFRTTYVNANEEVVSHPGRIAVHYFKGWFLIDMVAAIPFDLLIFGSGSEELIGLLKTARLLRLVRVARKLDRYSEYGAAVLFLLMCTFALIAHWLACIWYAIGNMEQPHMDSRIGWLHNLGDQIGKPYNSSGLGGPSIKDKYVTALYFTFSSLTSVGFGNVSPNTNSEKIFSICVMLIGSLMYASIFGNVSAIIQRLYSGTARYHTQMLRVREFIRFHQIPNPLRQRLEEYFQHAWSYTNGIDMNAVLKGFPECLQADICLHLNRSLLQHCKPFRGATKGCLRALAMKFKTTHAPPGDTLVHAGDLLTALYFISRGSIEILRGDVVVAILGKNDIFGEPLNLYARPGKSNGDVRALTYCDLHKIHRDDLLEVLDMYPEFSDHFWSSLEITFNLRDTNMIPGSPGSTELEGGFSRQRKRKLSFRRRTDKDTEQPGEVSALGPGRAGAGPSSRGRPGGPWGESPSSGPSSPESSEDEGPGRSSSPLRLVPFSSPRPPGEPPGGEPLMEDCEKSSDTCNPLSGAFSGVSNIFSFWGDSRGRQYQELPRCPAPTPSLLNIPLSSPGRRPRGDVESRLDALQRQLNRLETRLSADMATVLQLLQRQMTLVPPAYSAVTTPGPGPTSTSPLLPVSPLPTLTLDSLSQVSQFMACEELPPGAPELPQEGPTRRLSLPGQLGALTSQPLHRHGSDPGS
For `O=C(O)c1ccccc1Nc1cccc(OCc2ccc3ccccc3n2)c1`, the “hERG current change (%, negative = inhibition) at 10uM” value came out at 14.1%.

As for `CC(=O)N1CCN(c2ccc(NC(=O)c3ccc([N+](=O)[O-])cc3)cc2)CC1`, the “hERG current change (%, negative = inhibition) at 10uM” value was found to be 1.37%. `CCOc1ccc(-c2c[n+](=O)c3c(n2[O-])CCCC3)c(OCC)c1`: the “hERG current change (%, negative = inhibition) at 10uM” value is on record as -1.28%. For `COC(=O)c1c[nH]c(=O)c2ccccc12` the value was 30.9%; for `CCOc1ccc(S(=O)(=O)N2CCC(C(=O)NCc3ccco3)CC2)cc1`, -53%. Turning to `Cc1ccc(/C=N/N2CCN(Cc3ccccc3)CC2)cc1`, the “hERG current change (%, negative = inhibition) at 10uM” value is -17.7%. Turning to `COCCOc1cc(N(CC(=O)N(C)C)S(=O)(=O)c2ccccc2)c(Cl)cc1Cl`, the “hERG current change (%, negative = inhibition) at 10uM” value is on record as -1.63%. As for `COc1ccc(CN2CCC(=O)N([C@H](CO)Cc3ccccc3)CC2)cc1`, the “hERG current change (%, negative = inhibition) at 10uM” value is reported as -2.16%. As for `c1ccc(CCNCCOc2ccccc2)cc1`, the “hERG current change (%, negative = inhibition) at 10uM” value is on record as -0.101%. On to `CC(/C=N/n1c(-c2ccncc2)n[nH]c1=S)=C\c1ccco1`, for which the “hERG current change (%, negative = inhibition) at 10uM” value is on record as 20.5%. Take `CCOC(=O)c1c(C)sc(Sc2ccc(Cl)cc2[N+](=O)[O-])c1OC`: the “hERG current change (%, negative = inhibition) at 10uM” value worked out at 11.3%.

As for `CCOCCc1nnc(NC(=O)c2cc(OC)c(OC)cc2[N+](=O)[O-])s1`, the “hERG current change (%, negative = inhibition) at 10uM” value worked out at 22.8%. For the compound `Cc1ccc(NC(=O)CN(C)C(=O)C(c2ccccc2)c2ccccc2)cc1`, the “hERG current change (%, negative = inhibition) at 10uM” value is listed as -16.6%.

`CCCOP(=O)(c1ccc(N(C)C)cc1)C(O)c1ccc(N(C)C)cc1` (centres unmarked): the “hERG current change (%, negative = inhibition) at 10uM” value came out at 12.8%. For `COc1ccc(-c2c(NC(=O)c3ccco3)n(-c3ccc(C)cc3)nc(C)c2=O)cc1`, the “hERG current change (%, negative = inhibition) at 10uM” value worked out at 18.2%.

As for `CC(C)Cn1c(N)c(/C=N/NC(=O)c2ccc(Cl)cc2)c(=O)n(C)c1=O`, the “hERG current change (%, negative = inhibition) at 10uM” value was determined as 28.6%. Consider `COC(=O)C(Nc1ccccc1Cl)(c1cc(C)c(O)c(C)c1)C(F)(F)F` (centres unmarked), for which the “hERG current change (%, negative = inhibition) at 10uM” value is -3.48%. Consider `CC(C)c1nnc(NC(=O)CCC(=O)Nc2ccc(Cl)cc2)s1`, for which the “hERG current change (%, negative = inhibition) at 10uM” value worked out at 17.2%. `CC(C)(C)c1ccc(C(CC(=O)O)NC(=O)C23CC4CC(CC(C4)C2)C3)cc1` (centres unmarked): the “hERG current change (%, negative = inhibition) at 10uM” value came out at 17.7%. Take `N#Cc1c(SCC(=O)Nc2ccc(C(F)(F)F)cc2)sc2c(O)cc(=O)[nH]c12`: the “hERG current change (%, negative = inhibition) at 10uM” value stood at 18.9%. For `CCCC(CCC(=O)NC1CCCCC1)C(=O)O` (centres unmarked) the value was -0.0608%; for `CS(=O)(=O)Nc1nnc(CCc2ccccc2)s1`, 19.6%; for `CC(C)N(C)NC(=S)Nc1ccccc1`, 25.1%. For `CC1C(=O)CC(c2ccccc2)NC1c1ccccc1` (centres unmarked), the “hERG current change (%, negative = inhibition) at 10uM” value is reported as -7.08%.

Take `O=C(C1=C[C@@H](c2ccc3c(c2)OCO3)C[C@@H](OCc2ccc(CO)cc2)O1)N1CCOCC1`: the “hERG current change (%, negative = inhibition) at 10uM” value is reported as -11.1%. On to `Cc1nn(C)c(C)c1S(=O)(=O)N1CCCC(C(=O)NC2CCCCC2)C1` (centres unmarked), for which the “hERG current change (%, negative = inhibition) at 10uM” value was -5.2%.

In the case of `C/C(N)=C(/C#N)C(=O)COC(=O)C1=NN(c2ccccc2)C(=O)CC1`, the “hERG current change (%, negative = inhibition) at 10uM” value was determined as 20.3%. Take `C/C(CCc1ccccc1)=N\NC(=O)C1C2CCCCC21` (centres unmarked): the “hERG current change (%, negative = inhibition) at 10uM” value is -0.194%. Then `CC(C)(C)CC(=O)Nc1nnc(SCC(=O)NC2CCCC2)s1`, with 8.3%; and `CC(=O)Nc1nc(COc2ccc3ccccc3c2)cs1`, with 22.4%; and `Cc1nc(SCC(=O)Nc2cc(C(N)=O)cc(C(N)=O)c2)c2c(C)c(C)sc2n1`, with 13.9%.

As to `CCN(Cc1ccccc1)S(=O)(=O)c1nc2nc(C)c(C)c(C)n2n1`, the “hERG current change (%, negative = inhibition) at 10uM” value is given as -11.3%. Turning to `O=C(CSc1nnc(COc2ccc(Cl)cc2)o1)N1CCN(c2ccccc2)CC1`, the “hERG current change (%, negative = inhibition) at 10uM” value is given as -1.37%. As for `O=C/C(=C\Nc1ccccn1)c1nc2ccccc2o1`, the “hERG current change (%, negative = inhibition) at 10uM” value was -18.8%. With `O=C(CCC(=O)Nc1ccc(F)cc1)N/N=C/c1cccs1`, the “hERG current change (%, negative = inhibition) at 10uM” value worked out at 3.36%. For the compound `COc1cc(NS(=O)(=O)c2ccc(NC(=S)NC(=O)c3ccco3)cc2)ncn1`, the “hERG current change (%, negative = inhibition) at 10uM” value came to 20.4%. As for `COC(=O)CON1C(=O)c2ccccc2C1=O`, the “hERG current change (%, negative = inhibition) at 10uM” value is listed as -5.6%. As to `CN(Cc1ccc2ccccc2c1)C(=O)c1ccc(C(F)(F)F)cc1`, the “hERG current change (%, negative = inhibition) at 10uM” value is given as 26.1%. Consider `Cc1[nH]c(C)c(S(=O)(=O)NCc2ccccc2Cl)c1C(=O)N1CCCC1`, for which the “hERG current change (%, negative = inhibition) at 10uM” value is recorded as -5.27%.

`CCOC(=O)[C@H](CCc1ccccc1)N[C@H]1CCc2ccccc2N(CC(=O)O)C1=O.Cl`: the “hERG current change (%, negative = inhibition) at 10uM” value is listed as 6.32%. In the case of `O=C(Nc1ccc(-n2nncc2-c2ccco2)cc1)c1ccc(F)cc1`, the “hERG current change (%, negative = inhibition) at 10uM” value is given as -1.17%. Regarding `CCn1c(C)cc2c(c1=O)C(c1ccc3c(c1)OCO3)C(C#N)=C(N)O2` (centres unmarked), the “hERG current change (%, negative = inhibition) at 10uM” value is given as -2.27%. With `O=C(NCCc1nc2ccccc2[nH]1)c1ccc(F)cc1`, the “hERG current change (%, negative = inhibition) at 10uM” value is on record as -20%. Take `Clc1ccc2nc(-c3cccc(SC4CCCCC4)c3)c(NCc3ccccc3)n2c1.O=C(O)C(F)(F)F`: the “hERG current change (%, negative = inhibition) at 10uM” value is reported as 2.82%. In the case of `CCC(C(=O)c1ccc(O)cc1)c1ccccc1` (centres unmarked), the “hERG current change (%, negative = inhibition) at 10uM” value was -5.56%. `[Br-].c1ccc(Nc2scc(-c3ccccc3)[n+]2Cc2ccco2)cc1`: the “hERG current change (%, negative = inhibition) at 10uM” value was found to be 9.79%. Then `O=C(Nc1ccc(Cl)cc1)C1=Cc2cc(Cl)ccc2OC1`, with -1.36%; and `Cc1ccc(S(=O)(=O)N2CCC(C(=O)NCCCN3CCCCCC3)CC2)cc1`, with -19.7%; and `CCOC(=O)C1=NN(C(=O)Nc2ccc(OC)cc2)C2C(=O)N(c3cccc(C(F)(F)F)c3)C(=O)C12` (centres unmarked), with -0.712%. Take `CC(C)C(=O)NNC(=O)c1csc(CS(=O)(=O)c2ccc(Cl)cc2)n1`: the “hERG current change (%, negative = inhibition) at 10uM” value is -1.62%. Then `CCCCn1c(=O)[nH]c2nc3cc(NC(C)=O)ccc3nc2c1=O`, with 13.3%. In the case of `COc1cccc(C(=S)N2CCOCC2)c1OS(=O)(=O)c1ccc(Cl)cc1`, the “hERG current change (%, negative = inhibition) at 10uM” value is given as 3.26%. As for `Cc1cc(NC(=O)c2ccc(C#N)cc2)n(-c2ccccc2)n1`, the “hERG current change (%, negative = inhibition) at 10uM” value is listed as -8.03%. On to `COc1ccc(C2=NN(C(=O)CCCC(=O)O)C(c3cn(-c4ccccc4)nc3-c3ccccc3)C2)cc1` (centres unmarked), for which the “hERG current change (%, negative = inhibition) at 10uM” value is on record as -9.6%. For `COC(=O)CSc1ncc(OC)c(OC)n1` the value was 1.27%; for `CCC1/C(=N\O)CC(c2ccco2)NC1c1ccco1` (centres unmarked), 2.76%.

Source of the values: publication PMC4336329 (PLoS ONE, 2015).
